# The other results are listed elsewhere or left out.
# B1: UEA-I (Ulex europaeus), P22972 (protein)
# chain: SDDLSFKFKNFSQNGKDLSFQGDASVIETGVLQLNKVGNNLPDETGGIARYIAPIHIWNCNTGEVASFITSFSFFMETSANPKAATDGLTFFLAPPDSPLRRAGGYFGLFEDTKDNDSSYQTVAVEFDTIGSPVNFDDPGFPHIGIDVNRVKSINAERWNKRYGLNNVANVEIIYEASSKTLTASLTYPSDQTSISVTSIVDLKEILPEWVSVGFSGGTYIGRQATHEVLNWYFTSNLIN
# What was measured:
# Experiment in all cases: glycan array binding signal (z-score within array); higher = stronger binding
# Settings in all cases: glycan notation: IUPAC condensed, linker removed
# [1] = molecular target: Gal(b1-3)GlcNAc(a1-6)Gal(b1-4)GlcNAc
# Outline: (§1)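 Glycan array data came from 3228 arrays in the Consortium for Functional Glycomics database, and only arrays with an available protein sequence were kept. Glycan names were put into IUPAC-condensed notation, and columns mapping to the same glycan were averaged. The binding signal is a within-array Z-score, averaged across arrays of one protein sequence run at different concentrations or buffers and across linkers. A negative Z-score can be read as non-binding.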
# [2] = molecular target: Gal(b1-3)GlcNAc(b1-2)Man(a1-3)[Gal(b1-3)GlcNAc(b1-2)Man(a1-6)]Man(b1-4)GlcNAc(b1-4)GlcNAc
# Outline: as §1
# [3] = molecular target: Gal(b1-3)GlcNAc(b1-2)Man(a1-3)[Gal(b1-3)GlcNAc(b1-2)Man(a1-6)]Man(b1-4)GlcNAc(b1-4)[Fuc(a1-6)]GlcNAc
# Outline: as §1
# [4] = molecular target: Gal(b1-3)GlcNAc(b1-2)[Gal(b1-3)GlcNAc(b1-6)]Man(a1-6)[Gal(b1-3)GlcNAc(b1-2)Man(a1-3)]Man(b1-4)GlcNAc(b1-4)GlcNAc
# Outline: as §1
# [5] = molecular target: Gal(b1-3)GlcNAc(b1-3)Gal(b1-3)GlcNAc
# Outline: as §1
# [6] = molecular target: Gal(b1-3)GlcNAc(b1-3)Gal(b1-4)Glc
# Outline: as §1
# [7] = molecular target: Gal(b1-3)GlcNAc(b1-3)Gal(b1-4)GlcNAc
# Outline: as §1
# [8] = molecular target: Gal(b1-3)GlcNAc(b1-3)Gal(b1-4)GlcNAc(b1-6)[Gal(b1-3)GlcNAc(b1-3)]Gal(b1-4)Glc
# Outline: as §1
# [9] = molecular target: Gal(b1-3)GlcNAc(b1-3)Gal(b1-4)[Fuc(a1-3)]GlcNAc(b1-6)[Gal(b1-3)GlcNAc(b1-3)]Gal(b1-4)Glc
# Outline: as §1
# [10] = molecular target: Gal(b1-3)GlcNAc(b1-3)GalNAc
# Outline: as §1
# [11] = molecular target: Gal(b1-3)GlcNAc(b1-6)Gal(b1-4)GlcNAc
# Outline: as §1
# [12] = molecular target: Gal(b1-3)[Fuc(a1-4)]GlcNAc
# Outline: as §1
# [13] = molecular target: Gal(b1-3)[Fuc(a1-4)]GlcNAc(b1-2)Man(a1-3)[Gal(b1-3)[Fuc(a1-4)]GlcNAc(b1-2)Man(a1-6)]Man(b1-4)GlcNAc(b1-4)GlcNAc
# Outline: as §1
# [14] = molecular target: Gal(b1-3)[Fuc(a1-4)]GlcNAc(b1-2)Man(a1-3)[Gal(b1-3)[Fuc(a1-4)]GlcNAc(b1-2)Man(a1-6)]Man(b1-4)GlcNAc(b1-4)[Fuc(a1-6)]GlcNAc
# Outline: as §1
# [15] = molecular target: Gal(b1-3)[Fuc(a1-4)]GlcNAc(b1-3)Gal(b1-3)[Fuc(a1-4)]GlcNAc
# Outline: as §1
# [16] = molecular target: Gal(b1-3)[Fuc(a1-4)]GlcNAc(b1-3)Gal(b1-4)GlcNAc
# Outline: as §1
# [17] = molecular target: Gal(b1-3)[Fuc(a1-4)]GlcNAc(b1-3)Gal(b1-4)[Fuc(a1-3)]GlcNAc
# Outline: as §1
# [18] = molecular target: Gal(b1-3)[GlcNAc(b1-6)]GalNAc
# Outline: as §1
# [19] = molecular target: Gal(b1-3)[Neu5Ac(a2-6)]GalNAc
# Outline: as §1
# [20] = molecular target: Gal(b1-3)[Neu5Ac(a2-6)]GlcNAc(b1-6)Gal(b1-4)Glc
# Outline: as §1
# [21] = molecular target: Gal(b1-3)[Neu5Ac(b2-6)]GalNAc
# Outline: as §1
# [22] = molecular target: Gal(b1-4)Gal
# Outline: as §1
# [23] = molecular target: Gal(b1-4)GalNAc(a1-3)[Fuc(a1-2)]Gal(b1-4)GlcNAc
# Outline: as §1
# [24] = molecular target: Gal(b1-4)GalNAc(b1-3)[Fuc(a1-2)]Gal(b1-4)GlcNAc
# Outline: as §1
# [25] = molecular target: Gal(b1-4)Glc
# Outline: as §1
# [26] = molecular target: Gal(b1-4)Glc6S
# Outline: as §1
# [27] = molecular target: Gal(b1-4)GlcNAc
# Outline: as §1
# [28] = molecular target: Gal(b1-4)GlcNAc(a1-6)Gal(b1-4)GlcNAc
# Outline: as §1
# [29] = molecular target: Gal(b1-4)GlcNAc(b1-2)Man
# Outline: as §1
# [30] = molecular target: Gal(b1-4)GlcNAc(b1-2)Man(a1-3)Man(b1-4)GlcNAc(b1-4)GlcNAc
# Outline: as §1
# [31] = molecular target: Gal(b1-4)GlcNAc(b1-2)Man(a1-3)[Gal(b1-4)GlcNAc(b1-2)Man(a1-6)]Man(b1-4)GlcNAc(b1-4)GlcNAc
# Outline: as §1
# [32] = molecular target: Gal(b1-4)GlcNAc(b1-2)Man(a1-3)[Gal(b1-4)GlcNAc(b1-2)Man(a1-6)]Man(b1-4)GlcNAc(b1-4)[Fuc(a1-6)]GlcNAc
# Outline: as §1
# [33] = molecular target: Gal(b1-4)GlcNAc(b1-2)Man(a1-3)[Gal(b1-4)GlcNAc(b1-2)][GlcNAc(b1-4)]Man(b1-4)GlcNAc(b1-4)GlcNAc
# Outline: as §1
# [34] = molecular target: Gal(b1-4)GlcNAc(b1-2)Man(a1-3)[GlcNAc(b1-2)Man(a1-6)]Man(b1-4)GlcNAc(b1-4)GlcNAc
# Outline: as §1
# [35] = molecular target: Gal(b1-4)GlcNAc(b1-2)Man(a1-3)[Man(a1-6)]Man(b1-4)GlcNAc(b1-4)GlcNAc
# Outline: as §1
# [36] = molecular target: Gal(b1-4)GlcNAc(b1-2)Man(a1-6)Man(b1-4)GlcNAc(b1-4)GlcNAc
# Outline: as §1
# [37] = molecular target: Gal(b1-4)GlcNAc(b1-2)Man(a1-6)[GlcNAc(b1-2)Man(a1-3)]Man(b1-4)GlcNAc(b1-4)GlcNAc
# Outline: as §1
binder,measurement,setting,value
B1,glycan array binding signal (z-score),[1],-0.173
same,glycan array binding signal (z-score),[2],-0.172
same,glycan array binding signal (z-score),[3],-0.174
same,glycan array binding signal (z-score),[4],-0.164
same,glycan array binding signal (z-score),[5],-0.175
same,glycan array binding signal (z-score),[6],-0.18
same,glycan array binding signal (z-score),[7],-0.177
same,glycan array binding signal (z-score),[8],-0.172
same,glycan array binding signal (z-score),[9],-0.182
same,glycan array binding signal (z-score),[10],-0.17
same,glycan array binding signal (z-score),[11],-0.168
same,glycan array binding signal (z-score),[12],-0.179
same,glycan array binding signal (z-score),[13],-0.169
same,glycan array binding signal (z-score),[14],-0.176
same,glycan array binding signal (z-score),[15],-0.175
same,glycan array binding signal (z-score),[16],-0.182
same,glycan array binding signal (z-score),[17],-0.181
same,glycan array binding signal (z-score),[18],-0.183
same,glycan array binding signal (z-score),[19],-0.184
same,glycan array binding signal (z-score),[20],-0.185
same,glycan array binding signal (z-score),[21],-0.19
same,glycan array binding signal (z-score),[22],-0.178
same,glycan array binding signal (z-score),[23],-0.182
same,glycan array binding signal (z-score),[24],-0.18
same,glycan array binding signal (z-score),[25],-0.176
same,glycan array binding signal (z-score),[26],-0.174
same,glycan array binding signal (z-score),[27],-0.181
same,glycan array binding signal (z-score),[28],-0.187
same,glycan array binding signal (z-score),[29],-0.174
same,glycan array binding signal (z-score),[30],-0.176
same,glycan array binding signal (z-score),[31],-0.17
same,glycan array binding signal (z-score),[32],-0.174
same,glycan array binding signal (z-score),[33],-0.185
same,glycan array binding signal (z-score),[34],-0.183
same,glycan array binding signal (z-score),[35],-0.186
same,glycan array binding signal (z-score),[36],-0.181
same,glycan array binding signal (z-score),[37],-0.181
